# Measurements reported in PubChem BioAssay AID1434 (Sanford-Burnham Center for Chemical Genomics, 2008).
# This is one part of the list. These are further read-outs of the screen, such as a control signal, another cell line or another target. No call is given for them. Compounds called inactive in the main read-out are mostly missing here.
# Molecular target: Runt-related transcription factor 1 (Homo sapiens) + Core-binding factor subunit beta (Homo sapiens) (UniProt Q01196+Q13951)
# Experiment: inhibitors of RUNX1 Runt–CBFb-SMMHC binding, primary screen, biochemical, FRET, Cerulean-Runt, Venus-CBFb-SMMHC, uHTS (AID 1434);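 further: 0% = DMSO wells and 100% = wells with excess untagged CBFb-SMMHC; inhibitors lower the FRET ratio by blocking Runt binding to CBFb-SMMHC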
# Conditions: Cerulean-Runt/Venus-CBFb-SMMHC FRET ratio 530/480, 1 h; retest duplicate average; at 20 µM; stronger effect = higher value
# UniProt Q01196, sequence (Q01196 whole entry, looked up): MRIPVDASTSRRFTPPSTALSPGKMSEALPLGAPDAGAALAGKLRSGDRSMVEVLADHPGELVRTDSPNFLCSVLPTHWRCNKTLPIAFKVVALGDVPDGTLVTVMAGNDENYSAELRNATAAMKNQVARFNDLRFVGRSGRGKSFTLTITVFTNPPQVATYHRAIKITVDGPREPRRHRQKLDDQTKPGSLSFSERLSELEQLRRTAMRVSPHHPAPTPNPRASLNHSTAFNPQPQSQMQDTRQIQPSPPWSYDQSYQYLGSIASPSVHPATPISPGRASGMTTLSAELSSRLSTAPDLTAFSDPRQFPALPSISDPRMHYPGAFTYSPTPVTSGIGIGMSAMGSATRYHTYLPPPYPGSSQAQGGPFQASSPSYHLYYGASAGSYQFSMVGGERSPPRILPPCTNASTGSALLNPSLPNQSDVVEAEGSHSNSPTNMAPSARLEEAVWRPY
# UniProt Q01196, sequence (Q13951 whole entry, looked up): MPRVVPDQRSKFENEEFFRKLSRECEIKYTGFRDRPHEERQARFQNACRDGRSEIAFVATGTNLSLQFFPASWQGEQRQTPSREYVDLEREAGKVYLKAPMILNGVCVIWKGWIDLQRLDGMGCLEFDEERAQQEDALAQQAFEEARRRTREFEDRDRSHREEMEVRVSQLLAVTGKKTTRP
row,SMILES,inhibition [%]
1,Cc1cccnc1Nc1nc(-c2ccc(O)c(O)c2)cs1,55
2,O=C1CCCC2=C1C(c1ccc(Br)cc1)c1c([nH]c(=S)[nH]c1=O)N2 (configuration not stated),56.9
3,N=c1oc2cc(O)ccc2cc1C(=O)Nc1ccccn1,70.6
4,COC(=O)c1ccc2[nH]c(C)c(CN3CCCC3)c(=O)c2c1,74
5,CCN(CC)C1=CC2=CC(=C(C#N)C#N)CCC2CC1 (configuration not stated),71.5
6,CCOC(=O)COc1ccc2c(C#N)c3ccccn3c2c1,70.6
7,COc1ccc(-c2cc(C(F)(F)F)c(C#N)c(=O)[nH]2)cc1,134
8,CCCCn1c(=O)nc2n(-c3ccc(Cl)cc3)c3ccccc3cc-2c1=O,93.2
9,COc1ccc(C2c3ccc(O)cc3Oc3ncn4nc(-c5ccccn5)nc4c32)cc1 (configuration not stated),91.9
10,C=CCN(CC=C)c1nc2ccccc2nc1C(C#N)C(=O)OC(C)C (configuration not stated),77.3
11,O=c1[nH]c2ccccc2c(O)c1O,51.1
12,COc1ccc(C(=O)/C=C/Nc2ccc(S(=O)(=O)Nc3nc(C)cc(C)n3)cc2)cc1OC,96.8
13,Cn1cc(/C=N\O)nc2c(=O)n(-c3ccccc3)c(=O)nc1-2,99.4
14,O=C(Oc1cc2oc(=O)c3c(c2cc1Cl)CCCC3)c1ccco1,128
15,COC(=O)C1=CNC=C(C(=O)OC)C1c1ccc(C(=O)OC)cc1,79.2
16,CCCCNC(=O)c1cc2c(=O)n3cccc(C)c3nc2n(Cc2ccncc2)c1=N,71.5
17,N#CC(C#N)=C1C=C2C=C(N3CCOCC3)CCC2CC1 (configuration not stated),70.6
18,N#Cc1cc2cc3c(cc2nc1N1CCCCC1)OCCO3,108
19,N#CC1=C(N)Oc2cc(N)ccc2C1C1CCCCC1 (configuration not stated),122
20,CCOC(=O)C1CCCN(C(=O)Cn2sc3nc(C)cc(C)c3c2=O)C1 (configuration not stated),53.5
21,Cc1c(C)c2cc(Cl)c(O)c(CN3CCCCC3)c2oc1=O,80.7
22,CCCCn1nc(C(=O)Oc2ccc3c(C)cc(=O)oc3c2)c2ccccc2c1=O,62.4

row,SMILES,inhibition [%]
1,CCc1cc2c(COC(=O)c3c(C)noc3C)cc(=O)oc2cc1O,108
2,Cc1csc2c(=O)sc(NC(=O)c3ccco3)nc12,76
3,CCN(CC)c1ccc2cc(-c3nc4ccccc4[nH]3)c(=O)oc2c1,71.5
4,COc1ccc(CNC(=O)c2cc3c(=O)n4ccccc4nc3n(Cc3cccnc3)c2=N)cc1,160
5,O=C(O)c1ccc(N=c2oc3cc(O)ccc3cc2C(=O)NCc2ccccc2)cc1,70.6
6,Cc1csc(NC(=O)c2cc(=O)[nH]c3ccccc23)n1,87.1
7,N=c1c(C(=O)NCc2ccco2)cc2c(=O)n3ccccc3nc2n1Cc1ccccc1,72.9
8,O=C(Oc1cc2oc(=O)c3c(c2cc1Cl)CCCC3)c1cccs1,134
9,Cc1ccc(-n2sc3ccccc3c2=O)cc1,50.2
10,CCN1CCN(Cc2c(O)c(Cl)cc3c(C)cc(=O)oc23)CC1,153
11,Cc1ccc2nc3c(cc2c1)c(NC(=O)c1ccccn1)nn3CC(C)C,91.2
12,CCc1cc(=O)oc2c(C)c(O)c(CN(C)C)cc12,55.1
13,Cc1c(C(=O)O)cccc1-n1c(C)cc(C=O)c1C,68.6
14,Cc1csc(NC(=O)c2cc(=O)[nH]c3ccc(S(=O)(=O)N4CCOCC4)cc23)n1,166
15,COCCNc1c2c(c(C#N)c3nc4ccccc4n13)CCCC2,72
16,CCN(CC)c1nc2ccccc2nc1C(C#N)C(=O)NCCc1ccccc1 (configuration not stated),83.5
17,CC1=C(C(=O)Nc2cc(C)ccn2)C(c2ccc(C)cc2)C2=C(CCCC2=O)N1 (configuration not stated),56.1
18,N#Cc1c(N)n(CCOC(=O)c2cccc(Br)c2)c2nc3ccccc3nc12,99.5
19,O=c1[nH]c(C(Cl)Cl)nc2sc3c(c12)CCN(Cc1ccccc1)C3,71.5
20,Cc1cccc(/C=N/c2sc3c(c2C#N)CCN(Cc2ccccc2)C3)c1O,124
21,Cc1cc(-n2c(=O)c(C#N)cc3c(=O)n4ccccc4nc32)no1,72.9
22,COc1cccc(C(=O)Nc2sc3c(c2C#N)CCN(C(C)=O)C3)c1,75.5

row,SMILES,inhibition [%]
1,CC1CCCCC1NC(=O)COC(=O)c1c2c(nc3ccccc13)/C(=C/c1ccco1)CC2 (configuration not stated),142
2,Oc1c(Cl)cc(Cl)cc1/C=N/NC(=S)NC1CC2C=CC1C2 (configuration not stated),70.6
3,CCOC(=O)c1cc2c(=O)n3ccccc3nc2n(CC2CCCO2)c1=NC(=O)/C=C/c1ccccc1 (configuration not stated),79
4,COc1ccc(C(=O)c2cc3ccc(O)cc3oc2=O)cc1,162
5,COCCCn1c(=NC(=O)c2ccccc2)c(C#N)cc2c(=O)n3cccc(C)c3nc21,70.6
6,Cc1ccc(C)c(OCCn2cc(/C=C(\C#N)C(=O)NCc3ccco3)c3ccccc32)c1,71.4
7,CCN(CC)c1ccc(-c2c(C#N)c(N)nc(OC)c2C#N)cc1,88.9
8,CN1CC=C2C(C#N)=C(N)C(C#N)(C#N)C(c3cccc(Cl)c3Cl)C2C1 (configuration not stated),76.9
9,Cc1cccc(S(=O)(=O)c2c(N)n(Cc3ccco3)c3nc4ccccc4nc23)c1,-5.4
10,Cc1cc(C)c2c(N)c3ccccc3nc2n1,72.9
11,CCC(=O)N(C)/C=C1\Sc2ccccc2C1=O,68.2
12,CSc1nsc2nc(=O)c(/C=C3\C=Nc4ccccc43)c(N)n12,53.1
13,CN1CCc2c(sc3c2C(=O)NC(c2cn(Cc4ccccc4)c4ccccc24)N3)C1 (configuration not stated),118
14,CCN(CC)c1ccc2c(C)c(-c3ccc(N)cc3)c(=O)oc2c1,71.7
15,CNC(=O)/C(C#N)=C/c1c(N(Cc2ccccc2)Cc2ccccc2)nc2c(C)cccn2c1=O,69.1
16,Nc1c(C(=O)NCc2ccccc2)c2nc3ccccc3nc2n1CCCN1CCOCC1,71.5
17,CC(C)N1CC=C2C(C#N)=C(N)C(C#N)(C#N)[C@H](c3ccoc3)[C@H]2C1,90.4
18,COC(=O)c1ccc(C2C(C#N)=C(C)NC3=C2C(=O)CC(C)(C)C3)cc1 (configuration not stated),77.7
19,C=CCOc1ccc(C2C(C#N)=C(N)N(Nc3ccccc3)C3=C2C(=O)CCC3)cc1OC (configuration not stated),128
20,C=CCn1c(N)c(C(=O)OC(C)(C)C)c2nc3ccccc3nc21,138
21,COc1ccc(N=c2oc3cc(O)ccc3cc2C(=O)Nc2ccccn2)cc1OC,70.6
22,COCCCn1c(=NC(C)=O)c(C#N)cc2c(=O)n3cccc(C)c3nc21,70.6

row,SMILES,inhibition [%]
1,CC(=O)NCCN=Cc1sc2ccccc2c1O,69.2
2,COCCCNC(=O)c1c(N)n(-c2ccccc2)c2nc3ccccc3nc12,70.6
3,Cc1cccc2cc(C#N)c(NCCCn3ccnc3)nc12,96
4,N#Cc1c(-c2ccc(Cl)cc2)c2c([nH]c1=O)-c1ccccc1OC2,70.6
5,CCCCc1c(C)c(C#N)c2nc3ccccc3n2c1Nc1c(C)n(C)n(-c2ccccc2)c1=O,67.9
6,Cc1c(O)ccc2c3c(c(=O)oc12)CCCC3,127
7,CN1CCc2cccc3c2[C@H]1Cc1ccc(O)c(O)c1-3,76.8
8,COCCn1c(-c2ccco2)nc2nc3ccccc3nc21,64.7
9,C=CCNC(=O)C(C#N)c1nc2ccccc2nc1N1CCCCCC1 (configuration not stated),86.3
10,CCOC(=O)c1cc2c(=O)n3ccccc3nc2n(CCCOC)c1=NC(=O)c1cccnc1,173
11,CCOC(=O)Nc1c2ccccc2nc2ccccc12,123
12,CCn1nc(NC(=O)c2ccccc2)c2cc3cccc(C)c3nc21,108
13,CC(C)C1OC2(C)OC(=N)C1(C#N)C(C#N)(C#N)C2c1ccccc1 (configuration not stated),71.5
14,O=c1oc2c(CN3CCOCC3)c(O)ccc2c2c1CCC2,62.3
15,Cn1c(C(=O)NCc2ccccn2)cc2c(=O)n3ccccc3nc21,73.8
16,CCCc1cc(N2CCN(C(=O)c3ccco3)CC2)n2c(nc3ccccc32)c1C#N,64.1
17,CCc1ccc(C2C3=C(CC(C)(C)CC3=O)Nc3c2c(=O)[nH]c2nc(C)nn32)cc1 (configuration not stated),146
18,COc1cc(/C=N/N2CCN(C3c4ccccc4-c4ccccc43)CC2)cc(OC)c1O,57.9
19,CCOc1ccc2nc(NCCNC(=O)CC)c(C#N)cc2c1,68.3
20,COc1cc(/C=C(\C#N)C(=O)NC(C)C)cc(Cl)c1O,72
21,COCCN(C(=O)CN1CCc2ccccc2C1)c1c(N)n(Cc2ccccc2)c(=O)[nH]c1=O,70.4
22,O=S(=O)(Nc1ccc(-c2nc3cccnc3s2)cc1)c1ccccc1F,161

row,SMILES,inhibition [%]
1,CCCC1C(C#N)=C(N)Oc2cc(C)n(C)c(=O)c21 (configuration not stated),123
2,O=C(O)c1cc(-c2ccc(/C=C3\NC(=O)N(c4ccc(Cl)cc4)C3=O)o2)ccc1Cl,79.3
3,C=CCc1c(O)c(CC)cc2c(C)cc(=O)oc12,70.6
4,Cc1cc(C(=O)O)ccc1-c1ccc(/C=C2\NC(=O)N(Cc3ccc(F)cc3)C2=O)o1,72.1
5,O=C(/C=C/Nc1nccs1)C(F)(F)Cl,80.1
6,CCCn1nc(NC(=O)c2ccco2)c2cc3cc(C)ccc3nc21,73.5
7,CCOCCCn1c(=N)c(C(=O)NCc2ccc3c(c2)OCO3)cc2c(=O)n3ccccc3nc21,127
8,CCCCNC(=O)c1cc2c(=O)n3cccc(C)c3nc2n(CCN2CCOCC2)c1=N,83.5
9,Cc1cccn2c(=O)c3cc(C#N)c(=N)n(CCN4CCOCC4)c3nc12,150
10,COc1ccc(C(=O)N=c2c(C#N)cc3c(=O)n4cccc(C)c4nc3n2Cc2ccco2)cc1,72.9
11,CCOC(=O)/C(O)=C(\C#N)c1nc2ccccc2[nH]1,99.6
12,O=c1c(O)c(-c2cccs2)oc2ccccc12,71.5
13,Cc1c(O)ccc2c(CN(C)Cc3ccccc3)cc(=O)oc12,70.6
14,COc1ccccc1-n1c(-c2ccccc2)c[nH]c1=S,56.5
15,O=C(NC(Cc1ccccc1)C(=O)Oc1ccc2c(C(F)(F)F)cc(=O)oc2c1)OCc1ccccc1 (configuration not stated),71.5
16,Cc1c(C)c2cc(Cl)c(O)c(CN(C)C)c2oc1=O,170
17,CCCCC1C(C#N)=C(C)NC2=C1C(=O)CC(C)(C)C2 (configuration not stated),80.8
18,CSCCC(NC(C)=O)C(=O)Oc1ccc2c3c(c(=O)oc2c1)CCCC3 (configuration not stated),81.3
19,Cn1c(C(=O)N2CCc3ccccc3C2)cc2c(=O)n3ccccc3nc21,57.9
